According to PubChem BioAssay AID1240 (Sanford-Burnham Center for Chemical Genomics, 2008):
Among all 50,000 compounds or so, about 800 (1.6%) showed an effect of 50% or more. The list shows a part of the results.

biological target: Bcl-2-like protein 10 (Homo sapiens) (UniProt Q9HD36); test: Phenotype converters, Bcl-B/TR3 peptide binding displacement, primary biochemical FP (AID 1240); conditions: GST-Bcl-B / FITC-TR3 peptide fluorescence polarization; stronger effect = higher value; compound at 3.75 mg/L;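 also: 0% = Bcl-B with tracer peptide and DMSO and 100% = tracer peptide lacking Bcl-B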
Chain of UniProt Q9HD36 (Q9HD36 whole entry, looked up): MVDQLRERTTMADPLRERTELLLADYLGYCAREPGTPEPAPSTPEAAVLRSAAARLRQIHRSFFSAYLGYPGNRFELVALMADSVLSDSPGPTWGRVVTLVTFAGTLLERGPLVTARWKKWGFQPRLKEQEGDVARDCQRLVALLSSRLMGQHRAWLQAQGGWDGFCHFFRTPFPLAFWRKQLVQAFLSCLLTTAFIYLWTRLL

| SMILES | displacement [%] |
| --- | --- |
| Cc1ccc(-c2nc3cccnc3o2)cc1NC(=O)COc1ccc(C(C)(C)C)cc1 | -1.7 |
| CCOc1ccc(C(=O)Nc2ccc(-c3nc4ncccc4o3)cc2)cc1Cl | 7 |
| O=C(Nc1ccc(-c2nc3ccccc3s2)cc1)c1cc2ccccc2o1 | -6.9 |
| CC1CCc2c(sc(NC(=O)Nc3cccc(Cl)c3)c2C#N)C1 (stereo unspecified) | 1.7 |
| COc1ccccc1/C=C1\SC(=S)N(NC(=O)c2ccc([N+](=O)[O-])cc2)C1=O | 12.7 |
| CCOC(=O)c1ccc2[nH]c(C)cc(=O)c2c1 | -2 |
| COc1ccc(NC(=O)COc2ccc(C)cc2C)c([N+](=O)[O-])c1 | -1.7 |
| Cc1cc(C)nc(NN2C(=O)/C(=C/c3ccc(O)cc3)SC2=S)n1 | -73.2 |
| O=c1[nH]c(-c2ccc(O)c([N+](=O)[O-])c2)nc2sc3c(c12)CCCC3 | -30.1 |
| COc1ccc(C2Nc3ccc(C(=O)c4ccccc4)cc3NC3=C2C(=O)CC(C)(C)C3)cc1 (stereo unspecified) | 19 |
| COc1ccccc1N(CC(=O)NCCSC)S(=O)(=O)c1ccccc1 | -0.5 |
| CN1CCN(C(=O)c2ccccc2NC(=O)CN2C(=O)c3ccccc3C2=O)CC1 | 9.4 |
| C/C(=N\Nc1nc(C(C)(C)C)cs1)c1ccc(O)cc1 | -3.7 |
| CCN1C(=O)C(=Cc2ccc([N+](=O)[O-])o2)C(=O)N(CC)C1=S | 29.7 |
| COC(=O)c1c(NC(=O)c2c(-c3ccccc3)noc2C)sc2c1CCCCC2 | -2.8 |
| COC(=O)C1=C(C)NC2=C(C(=O)CC(c3cccs3)C2)C1c1ccc(F)c(F)c1 (stereo unspecified) | 11.1 |
| c1ccc(Nc2nc(-c3ccncc3)cs2)cc1 | 3.8 |
| Cc1onc(-c2c(Cl)cccc2Cl)c1C(=O)Nc1sc2c(c1C(N)=O)CCCC2 | -14.6 |
| O=[N+]([O-])c1ccc(N2CCN(S(=O)(=O)c3ccc4ccccc4c3)CC2)c(Cl)c1 | 2.3 |
| CCOc1cccc(/C=N/c2ccccn2)c1O | 10.4 |
| O=C(O)CCCCCN1C(=O)C(=O)/C(=C(/O)c2ccc([N+](=O)[O-])cc2)C1c1cccc(F)c1 (stereo unspecified) | -2 |
| CC(=O)Oc1ccc(/C=C(/NC(=O)c2ccccc2)C(=O)NCCO)cc1 | 1.7 |

| SMILES | displacement [%] |
| --- | --- |
| C/C(=N/NC(=O)C(=O)N/N=C(/C)c1ccccc1)c1ccccc1 | 3.9 |
| COc1ccc(C)cc1NC(=O)COc1cccc2ccccc12 | 17.6 |
| COc1ccc(NC(=O)c2cc3n(n2)C(C(F)(F)F)CC(c2ccco2)N3)c(OC)c1 (stereo unspecified) | 3 |
| COc1ccc(Br)cc1CN1CCN(S(=O)(=O)c2ccc(Cl)cc2)CC1 | 5.7 |
| Cc1cccc(C(=O)Nc2sc3c(c2C(=O)NCc2ccco2)CCCCC3)c1 | -11.7 |
| CCC1CCc2c(sc(NC(=O)CCC3CCCCC3)c2C(N)=O)C1 (stereo unspecified) | -10.1 |
| COc1ccc(/C=C(/C#N)C(N)=O)c2ccccc12 | -5.2 |
| CCOc1ccc(N(CC(=O)N2CCCC2)S(=O)(=O)c2ccc(SC)cc2)cc1 | 15.5 |
| Cc1ccc(/C=N/NC(=O)C(=O)NC(C)(C)C)cc1 | 9.2 |
| CCC(=O)c1ccc(N2CCN(C(=O)c3ccc(F)cc3)CC2)c(F)c1 | -11.8 |
| O=C(Nc1ccccc1)c1ccc(CN2CCN(c3ccccc3)CC2)cc1 | -5.8 |
| CCOc1cc(/C=C2/SC(=S)N(C)C2=O)ccc1OCCOc1ccccc1C | 3.3 |
| O=C(Nc1cccc(Cl)c1Cl)c1ccc(CN2CCOCC2)cc1 | -1.3 |
| CCCCOC(=O)c1cccc(NC(=O)COc2ccccc2)c1 | -9.4 |
| Cc1ccccc1NC(=O)c1c(NC(=O)Cc2ccccc2)sc2c1CCCC2 | 14.2 |
| N/C(Cc1ccc(Cl)cc1)=N\OC(=O)c1ccc([N+](=O)[O-])cc1 | -0.8 |
| O=c1/c(=C/c2cccc(Br)c2)sc2nc3cc(Br)cnc3n12 | -5.6 |
| Cc1cccc(OCCNc2cc(N3CCCC3)ccc2[N+](=O)[O-])c1 | -6.1 |
| O=C(Nc1ccccc1)/C(=C\c1ccccc1)NC(=O)c1ccccc1Br | -13.4 |
| O=C(Nc1cccnc1)c1cccc(S(=O)(=O)N2CCCCC2)c1 | 1.2 |
| O=C(Nc1ccccc1)C1CCCN1C1CCCCC1 (stereo unspecified) | 0.7 |
| CS(=O)(=O)N(Cc1ccc(C(=O)Nc2cccc(C(F)(F)F)c2)cc1)c1cccc(Cl)c1 | -0.3 |

| SMILES | displacement [%] |
| --- | --- |
| Cc1c(C(=O)NC2CCCCCC2)cccc1[N+](=O)[O-] | -4.8 |
| O=C(NCc1cccnc1)c1cnn2c(C(F)(F)F)cc(-c3cccs3)nc12 | 0.3 |
| Cc1ccc(C)c(C(=O)CSc2n[nH]c(-c3ccccc3)n2)c1 | 15.7 |
| O=C1/C(=C/c2ccc(-c3ccccc3[N+](=O)[O-])o2)SC(=S)N1Cc1ccccc1 | 12.2 |
| C=CCN=C1/C(=C(/O)CCC)C(=O)CC(C)(C)C1C(=O)OC (stereo unspecified) | 7.6 |
| CCSCCOC(=O)C1=C(C)NC(=O)NC1c1cc(OC)c(OC)c(OC)c1 (stereo unspecified) | 7.3 |
| C=CCC1(N(Cc2ccccc2)C(C)=O)CCCCC1 | 3.9 |
| O=C(Nc1ccc(NC(=O)c2ccc(Cl)cc2Cl)c(Cl)c1)c1ccccc1 | 12.7 |
| COc1cc([N+](=O)[O-])ccc1-c1ccc(/C=C2\C(=O)NN(c3ccccc3)C2=O)o1 | -9.1 |
| CC(C)OCCCNC(=O)C(=O)NCc1cccc(CNC(=O)C(=O)NCCCOC(C)C)c1 | 0.4 |
| COc1ccc(CN2CCN(CC3CC4C=CC3C4)CC2)cc1Br (stereo unspecified) | 16.5 |
| CCc1ccccc1NC(=O)/C=C/c1ccc(OC)c(Br)c1 | 2.2 |
| O=C(O)c1ccc2c(c1)C(=O)N(c1ccc(-c3nnc(-c4ccccc4)o3)cc1)C2=O | 9 |
| CC1=C(C(=O)OCCc2ccccc2)C(c2ccccc2OC(C)C)CC(=O)N1 (stereo unspecified) | -13 |
| CCOC(=O)C1=C(C)N=c2s/c(=C\c3ccc4c(c3)OCO4)c(=O)n2C1c1ccc(OC)c(Br)c1 (stereo unspecified) | 25.3 |
| Cc1ccc(NC(=S)c2ccccn2)cc1 | 0.8 |
| COC(=O)c1cnn2c(C(F)(F)F)cc(-c3cc(OC)c(OC)c(OC)c3)nc12 | -13.7 |
| C=CCN1C(=O)/C(=C\c2ccc(OCc3ccccc3)c(OCC)c2)SC1=S | 49.5 |
| COc1ccc(CC(=O)Nc2cccc(C(=O)NCC(C)C)c2)cc1 | -2.9 |
| COc1cc2c(cc1OC)C(NNC(N)=O)=NC(C)(C)C2 | 5.6 |
| O=C1C2C3C=CC(C4CC34)C2C(=O)N1c1cc(Cl)cc(Cl)c1 (stereo unspecified) | -5.8 |
| CCSCCOC(=O)C1=C(C)NC2=C(C(=O)CCC2)C1c1ccc(F)c(F)c1 (stereo unspecified) | -2.4 |
